According to PubChem BioAssay AID2100 (National Center for Advancing Translational Sciences (NCATS), 2009):
The campaign covered roughly 300,000 compounds. About 1,200 (0.4%) were called active. This list was built around the results that the source calls inconclusive (neither active nor inactive); the mix of calls is not that of the screen. Calls follow the shape of the dose curve; as a rule, active = well fitted inhibition curve with a large enough effect; inconclusive = small, poorly fitted or top-dose-only effect, or another doubt; inactive = no such curve, though single readings can be large or run the other way. Potencies of inconclusive entries are doubtful fits and often do not repeat.

target: Lysosomal alpha-glucosidase (Homo sapiens) (UniProt P10253); experiment: qHTS Assay for Inhibitors and Activators of Human alpha-Glucosidase Cleavage of Glycogen; settings: recombinant GAA, glycogen substrate, Amplex Red glucose oxidase fluorescence; series mostly up to 76.4 µM
Outline: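 Recombinant human alpha-glucosidase (4 nM final) hydrolysed bovine liver glycogen (30 ug) for 40 min at 37 C in pH 5.0 citrate/phosphate with 0.01% Tween-20. Released glucose detected by glucose oxidase/Amplex Red, Ex 573/Em 610 nm. Compounds up to 77 uM; AC50 from Hill fits.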
Potency is read from the fitted curve at half-maximal effect.

Row | SMILES | Potency
1 | COc1ccc2c(c1)C=CC1(O2)N(CCO)c2ccccc2C1(C)C (centres undefined) | inconclusive: 14 µM [inhibitor, partial curve]
2 | CCOC(=O)C(NC(=O)N(C)C)(Nc1sc(C)c(CC)c1C#N)C(F)(F)F (centres undefined) | inconclusive: 28.2 µM [inhibitor, partial curve]
3 | COc1ccc(S(=O)(=O)Nc2ccc(O)c(Sc3ncn[nH]3)c2)cc1 | inconclusive: 10 µM [inhibitor, full curve]
4 | CCOC(=O)c1c(C)c(C(=O)NCc2ccc3c(c2)OCO3)c(C)n1CC | inactive
5 | COc1ccc(C(=O)N/N=C/c2c(CO)cnc(C)c2O)cc1 | inactive
6 | COc1ccc(CNc2n[nH]c(NCc3ccc(OC)c(OC)c3)n2)cc1OC | active: 22.2 µM
7 | CCOc1ccc(/C=N/Nc2ccc(C(F)(F)F)cc2[N+](=O)[O-])cc1O | inconclusive: 3.98 µM [inhibitor, full curve, poor fit]
8 | N#CC(c1ccccc1O)N1N=C(c2ccccc2)CC1c1ccccc1 (centres undefined) | inconclusive: 44.7 µM [activator, single point]
9 | O=C(NNc1ccccc1[N+](=O)[O-])Nc1ccc(F)cc1 | inconclusive: 39.5 µM [inhibitor, single point]
10 | CCOC(=O)c1[nH]c2c(c1Cc1ccccc1OC)C(=O)CC(c1ccccc1)C2 (centres undefined) | inactive
11 | CC(=O)Nc1cc(C(C)(C)C)c(O)c(C(C)(C)C)c1 | active: 14.1 µM
12 | CC(=O)c1cc(NC(=O)c2cccc(C(F)(F)F)c2)c(=O)oc1C | inconclusive: 35.5 µM [inhibitor, partial curve]
13 | O=C(NCC(c1ccco1)N1CCCCC1)c1ccc2c(c1)S(=O)(=O)c1ccccc1C2=O (centres undefined) | inconclusive: 50.1 µM [inhibitor, single point]
14 | Cc1onc(-c2ccccc2)c1C(=O)NC(=S)NNC(=O)c1cccnc1 | inconclusive: 50.1 µM [inhibitor, single point]
15 | COc1ccc(OC)c(/C(C)=N/Nc2ccc(C(=O)O)cc2)c1 | inconclusive: 3.98 µM [inhibitor, full curve]
16 | CCc1ccc(N2C(=O)CC(NNc3nc4ccccc4s3)C2=O)cc1 (centres undefined) | inconclusive: 35.2 µM [inhibitor, single point]
17 | C/C(=N\Nc1nc(C)c(C)s1)c1ccc([N+](=O)[O-])cc1 | inconclusive: 14.1 µM [inhibitor, partial curve]
18 | COc1ccc(/C(C)=N/NC(=O)c2ccncc2)cc1[N+](=O)[O-] | inconclusive: 39.8 µM [inhibitor, partial curve]
19 | COc1cccc(/C=N/Nc2ccccc2C(=O)O)c1O | inconclusive: 14 µM [inhibitor, partial curve]
20 | COc1ccc(-c2cc(OC(=O)c3ccccc3Cl)c3c(C)oc(C)c3c(=O)c2)cc1OC | inconclusive: 15.8 µM [inhibitor, partial curve]
21 | Cc1nnc(N/N=C/c2ccccc2O)n1N | inconclusive: 3.98 µM [inhibitor, full curve, poor fit]
22 | Cc1ccc(/C=N/Nc2ccc(C(=O)O)cc2)o1 | inconclusive: 12.6 µM [inhibitor, partial curve]

Row | SMILES | Potency
23 | Cc1ccc(NC(=O)Cn2c(=O)n(-c3ccccc3)c(=O)c3ccc(C(=O)NCc4ccc5c(c4)OCO5)cc32)cc1 | inconclusive: 35.5 µM [inhibitor, partial curve]
24 | CNC(=O)c1c(C)[nH]c(=S)c(C#N)c1-c1ccco1 | inconclusive: 50.1 µM [inhibitor, single point]
25 | COC(=O)c1ccc(NC(=O)C(=O)c2cccn2C)cc1 | inactive
26 | O=C(Nc1cccc([N+](=O)[O-])c1)Nc1cccs1 | inconclusive: 14.1 µM [inhibitor, partial curve]
27 | Cn1c(NN)nc2sc3c(c2c1=O)CCC3 | inconclusive: 50.1 µM [inhibitor, single point]
28 | CC(=O)/C(=N/Nc1ccccc1C)N1CCOCC1 | active: 12.6 µM
29 | CC(C)(C)c1ccc(S(=O)(=O)c2cnc(SCC(=O)Nc3ccc4c(c3)OCCO4)[nH]c2=O)cc1 | inactive
30 | CN(C)NC1=CC(=[N+]2CCCC2)CC(C)(C)C1 | inconclusive: 50.1 µM [inhibitor, single point]
31 | COc1cc2ccccc2cc1C(=O)Nc1ccc(N2CCOCC2)cc1 | inactive
32 | O=C(O)C1Nc2c(Cl)cc(Cl)cc2C2C=CCC12 (centres undefined) | inactive
33 | Cc1ccc(Nc2nc(CSc3nnc(-c4ccccc4C)n3C)cs2)cc1 | inconclusive: 17.6 µM [inhibitor, partial curve]
34 | O=C(COc1ccc(Cl)cc1)Nc1ccc2nc(SCC(=O)N3CCOCC3)sc2c1 | inactive
35 | Oc1ccc(N2CCN(C(c3ccccn3)c3nnnn3C3CCCC3)CC2)cc1 (centres undefined) | inconclusive: 50.1 µM [inhibitor, partial curve, poor fit]
36 | CC(NC(=O)Nc1ccc(O)cc1)(C(F)(F)F)C(F)(F)F | inconclusive: 50.1 µM [inhibitor, single point]
37 | O=C(NNc1ccccc1[N+](=O)[O-])NC1CCCCC1 | inconclusive: 25.1 µM [inhibitor, partial curve]
38 | COc1ccc2c(c1)CC/C(=C\Nc1ccc3c(c1)OCO3)C2=O | inconclusive: 28 µM [inhibitor, single point]
39 | O=c1c2ccccc2nnn1CSc1nnnn1-c1ccc(O)cc1 | inactive
40 | O=C(CN1CCCCC1)Nc1ccc(N2CCCCCC2)cc1 | inconclusive: 14 µM [inhibitor, partial curve]
41 | O=C(CNCC1CCCO1)Nc1ccccc1N1CCCCCC1 (centres undefined) | inconclusive: 7.94 µM [inhibitor, partial curve]
42 | CCN(CC)CCCNC(=O)c1ccc(N2CCCCC2)c(NS(=O)(=O)c2ccc(C)cc2)c1 | inconclusive: 14 µM [inhibitor, partial curve]
43 | O=C1Cc2cc([N+](=O)[O-])ccc2N1c1c(Cl)cccc1Cl | inconclusive: 50.1 µM [inhibitor, single point]
44 | COc1ccc(NC(=S)NNc2ccc([N+](=O)[O-])cc2S(=O)(=O)Nc2ccc(C)cc2C)cc1 | inconclusive: 39.5 µM [inhibitor, single point]
